Assay results reported in the supplement of paper PMC10037445.
The full ranking holds about 2,900 compounds; the median of “NF-kB SEAP reporter activity, fold change vs agonist alone” is about 0.99, and the highest 2% start at about 2.6. Some of the results follow.

Tests used:
[1] = system: RAW-Dual; experiment: NF-kB SEAP reporter activity, fold change vs agonist alone; higher = enhanced NF-kB activity; conditions: cytotoxicity flag (confluency mask): not cytotoxic
Method in brief: (§1)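 RAW-Dual macrophages (50,000 cells/well in DMEM, 384-well plates) received 50 nL of library stock by pin tool, then a PRR agonist 1 h later, and were kept at 37 °C, 5% CO2. After 20 hours, supernatant was read for IRF by QuantiLuc luminescence and for NF-κB by QuantiBlue absorbance at 620 nm. Reporter activity is fold change over agonist-alone wells. Cytotoxic wells had IncuCyte confluency below 70% of agonist controls in both mask sets.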

[2] = system: RAW-Dual; experiment: NF-kB SEAP reporter activity, fold change vs agonist alone; cytotoxicity flag (confluency mask): not cytotoxic; higher = enhanced NF-kB activity
Method in brief: as §1

[3] = library stock concentration (final ~1000-fold dilution): 10 mM, agonist: Imiquimod (TLR7) […]
[4] = library stock concentration (final ~1000-fold dilution): 10 mM, agonist: MPLA (TLR4) […]
[5] = agonist: ODN 1826 (TLR9) 0.5 ug/mL
[6] = agonist: Pam2CSK4 (TLR2/6) 0.1 ug/mL
[7] = agonist: Pam3CSK4 (TLR2/1) 0.1 ug/mL
[8] = library stock concentration (final ~1000-fold dilution): 10 mM water, agonist: Imiquimod (TLR7) […]
[9] = library stock concentration (final ~1000-fold dilution): 10 mM water, agonist: MPLA (TLR4) […]

## O=C(O)C(=O)c1cn(Cc2ccccc2)c2ccc(-c3ccc(OC(F)(F)F)cc3)cc12
[1]; [3]
  NF-kB SEAP reporter activity: 0.977
[1]; [4]
  NF-kB SEAP reporter activity: 1.04

## O=C(O)C(=O)c1cn(Cc2ccccc2)c2ccc(-c3ccc(OC(F)(F)F)cc3)cc12 (library stock concentration (final ~1000-fold dilution): 10 mM)
[2]; agonist: LPS (TLR4) 0.1 ug/mL
  NF-kB SEAP reporter activity: 1.12
[2]; [5]
  NF-kB SEAP reporter activity: 0.948
[2]; [6]
  NF-kB SEAP reporter activity: 0.917
[2]; [7]
  NF-kB SEAP reporter activity: 0.841

## CC12CCC3C(CCC45OC4C(O)=C(C#N)CC35C)C1CCC2O (stereo not drawn) (library stock concentration (final ~1000-fold dilution): 10 mM)
[2]; agonist: LPS (TLR4) 0.1 ug/mL
  NF-kB SEAP reporter activity: 0.913
[2]; [5]
  NF-kB SEAP reporter activity: 0.786
[2]; [6]
  NF-kB SEAP reporter activity: 0.677
[2]; [7]
  NF-kB SEAP reporter activity: 1.11

## CC12CCC3C(CCC45OC4C(O)=C(C#N)CC35C)C1CCC2O (stereo not drawn)
[1]; [3]
  NF-kB SEAP reporter activity: 0.843
[1]; [4]
  NF-kB SEAP reporter activity: 0.861

## c1ccc2c(c1)Nc1ccccc1S2 (library stock concentration (final ~1000-fold dilution): 10 mM)
[2]; agonist: LPS (TLR4) 0.1 ug/mL
  NF-kB SEAP reporter activity: 1.08
[2]; [5]
  NF-kB SEAP reporter activity: 0.935
[2]; [6]
  NF-kB SEAP reporter activity: 0.808
[2]; [7]
  NF-kB SEAP reporter activity: 1.03

## c1ccc2c(c1)Nc1ccccc1S2
[1]; [3]
  NF-kB SEAP reporter activity: 0.939
[1]; [4]
  NF-kB SEAP reporter activity: 1.04

## O=c1c2ccccc2[se]n1-c1ccccc1 (library stock concentration (final ~1000-fold dilution): 10 mM)
[2]; agonist: LPS (TLR4) 0.1 ug/mL
  NF-kB SEAP reporter activity: 0.445
[2]; [5]
  NF-kB SEAP reporter activity: 0.277
[2]; [6]
  NF-kB SEAP reporter activity: 0.249
[2]; [7]
  NF-kB SEAP reporter activity: 0.46

## O=c1c2ccccc2[se]n1-c1ccccc1
[1]; [3]
  NF-kB SEAP reporter activity: 0.298
[1]; [4]
  NF-kB SEAP reporter activity: 0.545

## CCNc1nc(Cl)nc(NC(C)C)n1
[1]; [4]
  NF-kB SEAP reporter activity: 1.29

## CCNc1nc(Cl)nc(NC(C)C)n1 (library stock concentration (final ~1000-fold dilution): 10 mM)
[2]; agonist: LPS (TLR4) 0.1 ug/mL
  NF-kB SEAP reporter activity: 1.55
[2]; [5]
  NF-kB SEAP reporter activity: 1.4
[2]; [6]
  NF-kB SEAP reporter activity: 1.5
[2]; [7]
  NF-kB SEAP reporter activity: 1.67

## CCNC(=O)CC1N=C(c2ccc(Cl)cc2)c2cc(OC)ccc2-n2c(C)nnc21 (stereo not drawn)
[1]; [3]
  NF-kB SEAP reporter activity: 1.41
[1]; [4]
  NF-kB SEAP reporter activity: 2.47

## CCNC(=O)CC1N=C(c2ccc(Cl)cc2)c2cc(OC)ccc2-n2c(C)nnc21 (stereo not drawn) (library stock concentration (final ~1000-fold dilution): 10 mM)
[2]; agonist: LPS (TLR4) 0.1 ug/mL
  NF-kB SEAP reporter activity: 2.57
[2]; [5]
  NF-kB SEAP reporter activity: 1.9
[2]; [6]
  NF-kB SEAP reporter activity: 0.886
[2]; [7]
  NF-kB SEAP reporter activity: 1.43

## O=C(O)C(=O)CBr
[1]; [4]
  NF-kB SEAP reporter activity: 1.06

## O=C(O)C(=O)CBr (library stock concentration (final ~1000-fold dilution): 10 mM)
[2]; agonist: LPS (TLR4) 0.1 ug/mL
  NF-kB SEAP reporter activity: 0.991
[2]; [5]
  NF-kB SEAP reporter activity: 0.962
[2]; [6]
  NF-kB SEAP reporter activity: 1.07
[2]; [7]
  NF-kB SEAP reporter activity: 1.06

## Cl[Te]1(Cl)(Cl)OCCO1.N
[1]; [3]
  NF-kB SEAP reporter activity: 0.792
[1]; [4]
  NF-kB SEAP reporter activity: 0.899

## Cl[Te]1(Cl)(Cl)OCCO1.N (library stock concentration (final ~1000-fold dilution): 10 mM)
[2]; agonist: LPS (TLR4) 0.1 ug/mL
  NF-kB SEAP reporter activity: 1.39
[2]; [5]
  NF-kB SEAP reporter activity: 0.846
[2]; [6]
  NF-kB SEAP reporter activity: 0.912
[2]; [7]
  NF-kB SEAP reporter activity: 1.28

## CN1C2CCC1CC(OC(=O)C(CO)c1ccccc1)C2.CN1C2CCC1CC(OC(=O)C(CO)c1ccccc1)C2.O=S(=O)(O)O (stereo not drawn) (library stock concentration (final ~1000-fold dilution): 10 mM)
[2]; agonist: LPS (TLR4) 0.1 ug/mL
  NF-kB SEAP reporter activity: 0.97
[2]; [5]
  NF-kB SEAP reporter activity: 0.888
[2]; [6]
  NF-kB SEAP reporter activity: 1.02
[2]; [7]
  NF-kB SEAP reporter activity: 0.925

## CN1C2CCC1CC(OC(=O)C(CO)c1ccccc1)C2.CN1C2CCC1CC(OC(=O)C(CO)c1ccccc1)C2.O=S(=O)(O)O (stereo not drawn)
[1]; [4]
  NF-kB SEAP reporter activity: 1.05

## Cn1cc(C2=C(c3cn(C4CCN(Cc5ccccn5)CC4)c4ccccc34)C(=O)NC2=O)c2ccccc21 (library stock concentration (final ~1000-fold dilution): 10 mM)
[2]; agonist: LPS (TLR4) 0.1 ug/mL
  NF-kB SEAP reporter activity: 1.92
[2]; [5]
  NF-kB SEAP reporter activity: 1.37
[2]; [6]
  NF-kB SEAP reporter activity: 1.48
[2]; [7]
  NF-kB SEAP reporter activity: 1.96

## Cn1cc(C2=C(c3cn(C4CCN(Cc5ccccn5)CC4)c4ccccc34)C(=O)NC2=O)c2ccccc21
[1]; [3]
  NF-kB SEAP reporter activity: 1.35
[1]; [4]
  NF-kB SEAP reporter activity: 1.27

## CNC1CC(N)C(O)C(OC2OC(CO)C(O)C3OC4(OC(C(N)CO)C(O)C(O)C4O)OC23)C1O (stereo not drawn) (library stock concentration (final ~1000-fold dilution): 10 mM water)
[2]; agonist: LPS (TLR4) 0.1 ug/mL
  NF-kB SEAP reporter activity: 1.28
[2]; [5]
  NF-kB SEAP reporter activity: 1.28
[2]; [6]
  NF-kB SEAP reporter activity: 1.64
[2]; [7]
  NF-kB SEAP reporter activity: 1.38

## CNC1CC(N)C(O)C(OC2OC(CO)C(O)C3OC4(OC(C(N)CO)C(O)C(O)C4O)OC23)C1O (stereo not drawn)
[1]; [8]
  NF-kB SEAP reporter activity: 1.05
[1]; [9]
  NF-kB SEAP reporter activity: 1.13

## CCN(C)C(=O)Oc1cccc(C(C)N(C)C)c1.O=C(O)C(O)C(O)C(=O)O (stereo not drawn)
[1]; [3]
  NF-kB SEAP reporter activity: 0.909
[1]; [4]
  NF-kB SEAP reporter activity: 0.959

## CCN(C)C(=O)Oc1cccc(C(C)N(C)C)c1.O=C(O)C(O)C(O)C(=O)O (stereo not drawn) (library stock concentration (final ~1000-fold dilution): 10 mM)
[2]; agonist: LPS (TLR4) 0.1 ug/mL
  NF-kB SEAP reporter activity: 0.953
[2]; [5]
  NF-kB SEAP reporter activity: 0.949
[2]; [6]
  NF-kB SEAP reporter activity: 0.951
[2]; [7]
  NF-kB SEAP reporter activity: 1.08

## COc1ccc(C(CN(C)C)C2(O)CCCCC2)cc1 (stereo not drawn) (library stock concentration (final ~1000-fold dilution): 10 mM)
[2]; agonist: LPS (TLR4) 0.1 ug/mL
  NF-kB SEAP reporter activity: 1.24
[2]; [5]
  NF-kB SEAP reporter activity: 0.874
[2]; [6]
  NF-kB SEAP reporter activity: 1.03
[2]; [7]
  NF-kB SEAP reporter activity: 1.02

## COc1ccc(C(CN(C)C)C2(O)CCCCC2)cc1 (stereo not drawn)
[1]; [3]
  NF-kB SEAP reporter activity: 0.935
[1]; [4]
  NF-kB SEAP reporter activity: 0.991

## CN(C)C(=O)Oc1cccc([N+](C)(C)C)c1 (library stock concentration (final ~1000-fold dilution): 10 mM water)
[2]; agonist: LPS (TLR4) 0.1 ug/mL
  NF-kB SEAP reporter activity: 1.46
[2]; [5]
  NF-kB SEAP reporter activity: 1.16
[2]; [6]
  NF-kB SEAP reporter activity: 1.24
[2]; [7]
  NF-kB SEAP reporter activity: 1.08

## CN(C)C(=O)Oc1cccc([N+](C)(C)C)c1
[1]; [8]
  NF-kB SEAP reporter activity: 0.918
[1]; [9]
  NF-kB SEAP reporter activity: 1.04

## COC(=O)C(N)CCCNC(=N)N[N+](=O)[O-].Cl (stereo not drawn)
[1]; [8]
  NF-kB SEAP reporter activity: 0.928
[1]; [9]
  NF-kB SEAP reporter activity: 1.05
